The values below come from PubChem BioAssay AID224 (DTP/NCI, 2004).

Inconclusive results and toxic doses are left out. The source holds more than one record for some entries. This list holds those alone. The source may hold further records. Values given together repeat one measurement across runs, samples, wells, individuals or studies.

This test relates to P335 leukemia ip, BDF1 mice, survival T/C %. Kind of test: NCI In Vivo Anticancer Drug Screen. Data for tumor model P335 Leukemia (intraperitoneal) in B6D2F1 (BDF1) mice. The conditions noted are these: endpoint: mean survival time, schedule: Q01DX Z (ip), higher = longer survival. As to the method: The antitumor activity of compounds was measured in mice bearing transplantable tumors. Survival or tumor size were measured and the results are expressed as the measurement made in the treated group (T) divided by the measurement made in the vehicle treated control group (C). The tumor model used in this assay is P335 Leukemia (intraperitoneal) in B6D2F1 (BDF1) mice

With `O=P1(N(CCCl)CCCl)NCCCO1` (centres undefined), under “dose: 100.0 mg/kg/injection, vehicle: saline”, the T/C is 97 % of control and 182 % of control.

Take `CC[C@]1(O)C[C@H]2CN(CCc3c([nH]c4ccccc34)[C@@](C(=O)OC)(c3cc4c(cc3OC)N(C=O)[C@H]3[C@@](O)(C(=O)OC)[C@H](OC(C)=O)[C@]5(CC)C=CCN6CC[C@]43[C@@H]65)C2)C1`: the T/C (dose: 0.25 mg/kg/injection, vehicle: water) was 91 % of control, 100 % of control, 294 % of control.

Turning to `CSc1ncnc2c1ncn2C1OC(CO)C(O)C1O` (centres undefined), under “dose: 12.5 mg/kg/injection, vehicle: carboxymethylcellulose (CMC)”, the T/C was 108 % of control and 175 % of control.

Consider `Nc1nc(N)c2nc(CNc3ccc(C(=O)NC(CCC(=O)O)C(=O)O)cc3)cnc2n1` (centres undefined), for which, under “dose: 125.0 micrograms/kg/injection, vehicle: alkali diluted with saline”, the T/C is 100 % of control and 164 % of control.
